In PubChem BioAssay AID2451 (National Center for Advancing Translational Sciences (NCATS), 2010):
“And” between values parts separate entries of the source, which are not always exact repeats. Identical values can stand only once. Out of some 290,000 compounds screened, about 2,100 (0.72%) were called active. This list was built around the results that the source calls inconclusive (neither active nor inactive); the mix of calls is not that of the screen. Calls come from the whole dose curve; as a rule, active = well fitted inhibition curve with a large enough effect; inconclusive = small, poorly fitted or top-dose-only effect, or effect the other way; inactive = flat fitted curve, though single readings scatter. Where the call is inconclusive, the potency comes from a doubtful curve fit.

These molecules were tested against Fructose-bisphosphate aldolase (Giardia intestinalis (strain ATCC 50803 / WB clone C6)) (UniProt A8B2U2) (assay: qHTS Assay for Inhibitors of Fructose-1,6-bisphosphate Aldolase from Giardia Lamblia). Conditions: purified Giardia FBPA; activity, negative = inhibition: at 59.6 µM (top of the series) unless noted.
Procedure, shortened: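 Giardia FBPA (40 nM reagent) was preincubated 10 min at RT with compound (up to 57.5 uM final), then substrate plus GAPDH/TPI/NAD/arsenate coupling system with diaphorase/resazurin was added; resorufin fluorescence (525/598 nm) was read after 20 min.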
% is set by controls: 0 for no effect and ±100 for the full control effect; potency is the fitted concentration of half-maximal effect; tags give direction and shape of the fitted curve.
Note: nearly all actives have a fitted effect of over 55% in size.

UniProt A8B2U2, sequence (A8B2U2 whole entry, looked up): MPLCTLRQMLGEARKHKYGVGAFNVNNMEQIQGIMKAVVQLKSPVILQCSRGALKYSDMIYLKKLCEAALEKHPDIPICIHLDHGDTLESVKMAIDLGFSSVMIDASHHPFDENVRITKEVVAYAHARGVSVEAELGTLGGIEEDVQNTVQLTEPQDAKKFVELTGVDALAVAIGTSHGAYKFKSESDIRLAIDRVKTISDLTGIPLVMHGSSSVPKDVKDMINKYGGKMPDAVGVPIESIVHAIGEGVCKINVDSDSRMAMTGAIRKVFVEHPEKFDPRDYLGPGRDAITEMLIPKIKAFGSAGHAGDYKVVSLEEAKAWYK

Row | Structure (SMILES) | Potency | activity, negative = inhibition
1 | O=c1[nH]cnc2nc[nH]c12 | inconclusive: 19.9 µM [inhibitor, single point] | –
2 | COCCN(C(C)=O)c1nnc(-c2cnccn2)s1 | – | inactive: -3.97%
3 | FC(F)(F)C1CCCN(c2nsc3ccccc23)C1 (configuration not stated) | inconclusive: 8.91 µM [inhibitor, partial curve] | –
4 | CC(C)(C)/C(O)=C/c1nc2cc(Cl)ccc2oc1=O | inconclusive: 19.9 µM [inhibitor, partial curve] | –
5 | C/C(=N\NC(=O)c1ccc(F)cc1)c1ccccn1 | inconclusive: 39.8 µM [inhibitor, single point] | –
6 | CCC1CCCCN1C(=O)c1ccccc1OC1CCN(S(C)(=O)=O)CC1 (configuration not stated) | – | inactive: 1.28%
7 | O=C(NC1CCCCCC1)c1ccc[nH]c1=S | active: 15.8 µM | –
8 | Fc1ccc(CN2CCN(C(c3ccccc3)c3ccccc3)CC2)cc1 | active: 25.1 µM | –
9 | S=c1nc(-c2ccco2)[nH][nH]1 | inconclusive: 7.92 µM [inhibitor, partial curve] | –
10 | Cc1cccc(C)c1OC(=O)Cc1ccccc1[N+](=O)[O-] | – | inactive: 9.7%
11 | COc1ccccc1/C=C/C=N/n1c(-c2ccccn2)n[nH]c1=S | inconclusive: 7.92 µM [inhibitor, partial curve] | –
12 | CC1CC=CC2C1C(=O)N(Cc1ccccc1)C2c1ccc(Br)cc1F (configuration not stated) | – | inactive: 4.17%
13 | CC(CN1CCCC1)OC(=O)c1ccc(Cl)cc1 (configuration not stated) | inconclusive: 31.6 µM [inhibitor, partial curve] | –
14 | CCOC1C(=O)NC(=O)N1Cc1ccccc1 (configuration not stated) | active: 28.2 µM | –
15 | C[C@@](Cc1ccc(O)c(O)c1)(NN)C(=O)O | inconclusive: 17.7 µM [inhibitor, partial curve] and inconclusive: 17.7 µM [inhibitor, single point] | –
16 | Cc1c(C(=O)O)oc2ccc(S(=O)(=O)N(CC(C)C)CC(C)C)cc12 | inconclusive: 15.8 µM [activator, partial curve] | –
17 | c1ccc(COc2ccc(OCCCCN3CCCCC3)cc2)cc1 | inconclusive: 15.8 µM [inhibitor, partial curve] | –
18 | COc1cc2cc(NC(C)=O)cc(NCc3ccccc3)c2cc1OC | inconclusive: 7.94 µM [inhibitor, partial curve] | –
19 | CCCCN1C(=O)Cc2c1nc(N)c1c(N)nc(N(CCC)CCC)c(C#N)c21 | inconclusive: 22.3 µM [inhibitor, partial curve] | –
20 | OCCOCCNc1ncnc2c1cnn2-c1ccc(Cl)cc1 | – | inactive: -11.8%
21 | Oc1ccc(/C=N/Nc2cc(N3CCCC3)nc(N3CCCC3)n2)cc1O | inconclusive: 2.23 µM [inhibitor, full curve] | –
22 | O=C1C2=CC[C@H]3C(=O)N(c4cccc(Oc5ccccc5)c4)C(=O)[C@@H]3[C@@H]2[C@H](O)[C@@H]2O[C@H]12 | – | inactive: -0.191% [at 12.9 µM]
23 | COc1ccc(C2CC(c3ccc4ccccc4c3)=NN2C(=O)CNC2CCCCC2)cc1 (configuration not stated) | inconclusive: 17.7 µM [inhibitor, single point] | –
24 | CC(C)CN=Cc1c(O)c([N+](=O)[O-])cc2oc3c(c12)CCCC3 | inconclusive: 7.06 µM [inhibitor, partial curve] | –

Row | Structure (SMILES) | Potency | activity, negative = inhibition
25 | COc1ccc2c(c1)-c1c(ssc1=S)C(C)(C)N2S(=O)(=O)c1ccc(C)cc1 | – | inactive: 0.136%
26 | CCc1ccccc1NC(=O)C(Cc1cccc(OC)c1OC)c1nn[nH]n1 (configuration not stated) | inconclusive: 19.9 µM [inhibitor, partial curve] | –
27 | CC(C)OC(=O)CC1C(=O)NCCN1C(=S)NC(=O)c1ccccc1 (configuration not stated) | active: 11.2 µM | –
28 | O=c1[nH]c(Nc2ccc(F)cc2)cc2ccccc12 | inconclusive: 0.397 µM [inhibitor, full curve] | –
29 | O=C(C1CCCN(Cc2ccccc2C(F)(F)F)C1)N1CCCCC1 (configuration not stated) | inconclusive: 19.9 µM [inhibitor, partial curve] | –
30 | COc1ccc(OC)c2c(N3CC(C)OC(C)C3)cc(C(F)(F)F)nc12 (configuration not stated) | – | inactive: 0.789%
31 | Cn1c(/C(C#N)=C(\O)c2cccc(F)c2)nc2ccccc21 | inconclusive: 17.8 µM [inhibitor, partial curve] | –
32 | O=C(C1=C(O)C(=O)N(CC2CCCO2)C1c1ccccc1)c1ccco1 (configuration not stated) | inconclusive: 20 µM [inhibitor, partial curve] | –
33 | O=C(NCCc1ccccn1)C(F)(F)C(F)(F)C(F)(F)C(F)(F)C(F)(F)C(F)F | – | inactive: 0.922%
34 | CCOc1cc(/C=C2/C(=O)ON=C2C)ccc1OCc1ccccc1F | inconclusive: 15.8 µM [inhibitor, single point] | –
35 | Clc1ccc(CN2CCN(c3ncccn3)CC2)cc1 | inconclusive: 25.1 µM [inhibitor, partial curve] | –
36 | O=[N+]([O-])/C(C(Cl)=C(Cl)Cl)=C(/NC1CC1)Sc1ccccc1 | inconclusive: 22.3 µM [inhibitor, single point] | –
37 | O=C(CCCN1C(=O)c2ccccc2C1=O)Nc1cccc(S(=O)(=O)NC2=NCCC2)c1 | – | inactive: 3.11%
38 | O=c1nc(N/N=C/c2ccccn2)cn[nH]1 | active: 0.706 µM | –
39 | NC[C@@H]1O[C@H](C23CC4CC(CC(C4)C2)C3)Cc2c1ccc(O)c2O | inconclusive: 44.6 µM [inhibitor, single point] | –
40 | Cc1ccc(SCc2[nH]nc3c2C(c2ccc(C)o2)C(C#N)=C(N)O3)cc1 (configuration not stated) | inconclusive: 14.1 µM [inhibitor, partial curve] | –
41 | Cc1oc(-c2ccccc2F)nc1CS(=O)(=O)CC(=O)NC1CCCC1 | – | inactive: 0.476%
42 | CCOc1cc(C=C(C#N)C#N)ccc1Oc1ccc([N+](=O)[O-])cn1 | inconclusive: 19.9 µM [inhibitor, partial curve] | –
43 | CN(C)NC(=S)NC(=O)C12CC3CC(CC(C3)C1)C2 | inconclusive: 15.8 µM [inhibitor, single point] | –
44 | CC1CCCC(C)N1C(=S)NCc1ccco1 (configuration not stated) | inconclusive: 15.8 µM [inhibitor, partial curve] | –
45 | O=C(CCCCn1c(=S)[nH]c2ccsc2c1=O)NCc1ccco1 | inconclusive: 17.7 µM [inhibitor, single point] | –
46 | CCOc1ccc(NC(=S)NC(=O)c2c(Cl)cnn2CC)c([N+](=O)[O-])c1 | inconclusive: 7.06 µM [inhibitor, partial curve] | –
47 | CN(C)CCCN(C(=O)c1ccc2c(c1)CCCC2)c1nc2c(F)cccc2s1 | inconclusive: 19.9 µM [inhibitor, partial curve] | –
48 | C=CCn1cn[nH]c1=S | inconclusive: 5 µM [inhibitor, partial curve] | –

Row | Structure (SMILES) | Potency | activity, negative = inhibition
49 | O=C(N/N=C1\NC(=O)C(CO)(CO)S1)c1ccccc1 | inconclusive: 17.7 µM [inhibitor, partial curve] | –
50 | O=C(O)c1cc(-c2ccco2)nc2cc3ccccc3cc12 | inconclusive: 17.7 µM [inhibitor, single point] | –
51 | CCCCCn1cnc2c(=S)nc(N)[nH]c21 | active: 2.81 µM | –
52 | CCOC(=O)C1CCCN(Cc2ccc(-c3ccccc3)cc2)C1 (configuration not stated) | inconclusive: 12.6 µM [inhibitor, partial curve] | –
53 | O=C1OCc2ccc(NC(=O)C3CC3)cc21 | – | inactive: 2.3%
54 | COc1cc(/C=C2\SC(c3ccc(C)cc3)=NC2=O)ccc1O | active: 17.7 µM | –
55 | CC(C)N(C(=O)Nc1ccc2nccnc2c1)C(C)C | active: 3.54 µM | –
56 | COc1ccccc1Cn1c(=S)[nH]c2cc(C(=O)NCCCN3CCOCC3)ccc2c1=O | inconclusive: 17.8 µM [inhibitor, partial curve] | –
57 | CCOc1ccccc1N1CCN(C(=O)NC2CCCCC2)CC1 | – | inactive: 3.22%
58 | O=C(NC(=S)NNS(=O)(=O)c1ccccc1)c1ccc([N+](=O)[O-])cc1 | inconclusive: 6.29 µM [activator, single point] | –
59 | COc1ccc(CN2CCCC(C(=O)N3CCc4ccccc4C3)C2)cc1OC (configuration not stated) | inconclusive: 25.1 µM [inhibitor, partial curve] | –
60 | S=c1nc(C2COc3ccccc3O2)[nH][nH]1 (configuration not stated) | inconclusive: 6.29 µM [inhibitor, full curve, poor fit] | –
61 | c1ccc2c3c(c(CN4CCCCC4)cc2c1)COC3 | inconclusive: 11.2 µM [inhibitor, partial curve] | –
62 | CC(=O)NC(c1ccc(Cl)cc1Cl)c1ccc2cccnc2c1O (configuration not stated) | inconclusive: 39.8 µM [activator, partial curve] | –
63 | COc1cccc(CNc2ccc3c(c2)ncn3C(C)C)c1OC | inconclusive: 15.8 µM [inhibitor, partial curve] | –
64 | CC(C)N1CCN(Cc2ccc(OC3CCCC3)cc2)CC1CCO (configuration not stated) | – | inactive: -8.7%
65 | Cc1cccc(NC(=O)C[n+]2ccc(N(C)C)cc2)c1 | inconclusive: 28.2 µM [inhibitor, single point] | –
66 | FC(F)Oc1ccc(-c2csc(NNC3=NCCCCC3)n2)cc1 | inconclusive: 15.8 µM [inhibitor, partial curve] | –
67 | OCn1ncn(-c2ccccc2)c1=S | inconclusive: 6.29 µM [inhibitor, partial curve] | –
68 | COc1cccc(NC(=S)NC(=O)c2c(Cl)c(C)nn2C)c1 | inconclusive: 5 µM [inhibitor, full curve] | –
69 | O=C(OCC1OC2OC3(CCCCC3)OC2C2OC3(CCCCC3)OC12)c1ccccc1 (configuration not stated) | – | inactive: 4.37%
70 | CCCCc1cc2c(cn1)=C(OC(=O)CCC(=O)OC)C(C)(OC(=O)CC)C(=O)C=2 (configuration not stated) | – | inactive: -0.227% [at 12.9 µM]
71 | COc1ccccc1/C=N/NC(=O)CSc1ccc2ccccc2n1 | inconclusive: 22.4 µM [inhibitor, partial curve] | –
72 | C/C(N)=C(/C#N)C(=O)COC(=O)c1cc(C)n(-c2ccc(F)cc2)c1C | – | inactive: 1.97%
